The results in this text go back to ChEMBL document CHEMBL5308541, “MAIP: An Open-Source Tool to Enrich High-Throughput Screening Output and Identify Novel, Druglike Molecules with Antimalarial Activity” (ACS Med Chem Lett, 2023).

Molecules are shown by their SMILES. The campaign covered roughly 150,000 compounds. About 540 (0.36%) showed an effect of 50% or more. The list shows a part of the results.

The subject of the test is Plasmodium falciparum. Briefly: Primary screen in NF54 nanoGlo assay, in single point, at 2uM, 72h; a lower Z score goes with more inhibition. It is filed as functional, Erythrocyte. To be noted: timepoint 72 hour.
With `CCn1cncc1CNC(=O)c1cccc(-c2cc(NC(C)C)ncn2)c1`, the “% Inhibition” value is 0% and the Z score was -0.07.

Take `CN1CCN(CC2CCN(C(=O)Nc3ccccc3N(C)C3CCCC3)CC2)CC1`: the “% Inhibition” value is -2% and the Z score worked out at 0.34.

Turning to `N#Cc1ccc(CN2CCC(Nc3ccc4[nH]nnc4c3)CC2)cc1`, the “% Inhibition” value was -9% and the Z score amounted to 1.54.

As for `COc1cc2nc(NCc3c[nH]nc3C)sc2cc1OC`, the “% Inhibition” value was 4% and the Z score is -0.95.

On to `c1ccc2[nH]c(CCNc3cc(N4CCOCC4)ncn3)cc2c1`, for which the “% Inhibition” value is -16% and the Z score is recorded as 2.71.

As for `c1ccc(-c2noc([C@@]34CCC[C@@H]3CN(CCCN3CCOCC3)C4)n2)cc1`, the “% Inhibition” value was -9% and the Z score turned out to be 1.35.

Consider `Nc1ccc2c(ccn2Cc2ccc(Cl)cc2)c1`, for which the “% Inhibition” value came to 0% and the Z score was 0.

As to `O=C(Cc1cc(F)c(F)cc1F)Nc1ccc2[nH]ccc2c1`, the “% Inhibition” value is recorded as -4% and the Z score was found to be 0.69.

On to `CCN(CC)CCN1CCC(S(=O)(=O)N2CCCC2)CC1`, for which the “% Inhibition” value stood at 5% and the Z score is -0.85.

For `CC(c1ccc(OC(F)(F)F)cc1)N(C)C1CCN(C2CCN(C)CC2)C1` (centres undefined), the “% Inhibition” value came out at 7% and the Z score is listed as -1.44.

For the compound `COCCN1CCC[C@H](CNc2ccc(-c3ccccc3)nn2)C1`, the “% Inhibition” value is -1% and the Z score was 0.21.

For the compound `Cc1cc(N[C@@H](CO)c2ccccc2)nc(N(C)C)n1`, the “% Inhibition” value is -19% and the Z score stood at 3.27.

Consider `CC(C)COc1ccccc1-c1cc(N2CCN(C)CC2)nc(N)n1`, for which the “% Inhibition” value is recorded as -2% and the Z score is listed as 0.36.

For `CC(C)Cc1noc(CN(C)C(=O)NCc2cncn2C2CC2)n1`, the “% Inhibition” value turned out to be 3% and the Z score is recorded as -0.73.

Regarding `Cc1ccc(NC(=O)Nc2cccc3c2CCN(C(=O)C2CCOCC2)C3)cc1`, the “% Inhibition” value is -5% and the Z score came to 1.09.

As for `Cc1cccc2[nH]c(C3CCN(C(=O)[C@@H]4CC5(CCNCC5)CN4)CC3)nc12`, the “% Inhibition” value is reported as 0% and the Z score amounted to 0.01.

`O=C(Nc1cn(Cc2ccccc2)nn1)N1CCCC[C@H]1C(F)F`: the “% Inhibition” value was found to be 0% and the Z score is given as 0.05.

Consider `COC(CN(Cc1nc(N)nc(Nc2ccc(C)cc2)n1)Cc1nc(N)nc(Nc2ccc(C)cc2)n1)OC`, for which the “% Inhibition” value was 85% and the Z score is given as -18.33.

Consider `Cc1nccn1-c1ccc(NC(=O)[C@H]2CCCN(Cc3nc4cc(F)ccc4[nH]3)C2)cc1`, for which the “% Inhibition” value is reported as -5% and the Z score was 0.81.

For the compound `CNC(=O)[C@@H]1CC2(CCN(CC3CCCCC3)CC2)CN1c1ccc(C#N)c(C(F)(F)F)c1`, the “% Inhibition” value is recorded as -15% and the Z score is recorded as 2.59.

With `N#Cc1ccc(N2CCC(O)(c3cccc4cnccc34)CC2)nc1`, the “% Inhibition” value was -12% and the Z score came to 2.12.

Turning to `CC(C)CC(C(=O)NC1CCN(CC(=O)Nc2ccccc2)CC1)N1C(=O)C2CC=CCC2C1=O` (centres undefined), the “% Inhibition” value is given as -4% and the Z score was determined as 0.54.

On to `N#CC1CCCC(NCCCn2cccn2)C1` (centres undefined), for which the “% Inhibition” value worked out at 7% and the Z score was -1.3.

In the case of `COc1ccc2occ(C(=O)N[C@H]3CCO[C@@H]3c3cccnc3)c2c1`, the “% Inhibition” value is 7% and the Z score is recorded as -1.24.

For `COc1ccc2[nH]c(CN(Cc3cccnc3)CC3CCN(C4CCCC4)CC3)c(C)c2c1`, the “% Inhibition” value is 1% and the Z score is reported as -0.23.

As to `CCc1cc(=O)[nH]c(Nc2ccc(N3CCN(C)CC3)cc2)n1`, the “% Inhibition” value is on record as -5% and the Z score is 0.78.

Take `COc1ccnc(NC2CCN(Cc3cccc(O)c3)CC2)n1`: the “% Inhibition” value is listed as 2% and the Z score is given as -0.29.

Regarding `O=C(NCC1CCCCC1)c1cn2cc(-c3ccc(Oc4ccccc4)cc3)ccc2n1`, the “% Inhibition” value came to 2% and the Z score is -0.31.

For the compound `CN1CCN(CCCCNC2CC3CCC(C2)N3Cc2ccccc2)CC1` (centres undefined), the “% Inhibition” value was found to be 45% and the Z score is recorded as -9.76.

With `CN1CCN(C[C@H]2CCCN(Cc3cnc(-c4ccccn4)nc3)C2)CC1`, the “% Inhibition” value amounted to 4% and the Z score is on record as -0.67.

In the case of `Cc1cc(F)cc2[nH]c(C(=O)N3CC[C@H](Nc4ncccn4)C3)cc12`, the “% Inhibition” value is reported as -2% and the Z score came to 0.3.

With `CC1CN(Cc2cccc(-c3cnn(C)c3)c2)CC(C)N1` (centres undefined), the “% Inhibition” value came out at 0% and the Z score was 0.02.

Turning to `Cc1cc(N2CCC(N(C)Cc3nc4ccc(F)cc4[nH]3)CC2)ncn1`, the “% Inhibition” value is -13% and the Z score worked out at 2.24.

On to `COc1ccc(N2CCN(CCCNCc3cc(Cl)c4c(c3)OCCCO4)CC2)cc1`, for which the “% Inhibition” value is given as 6% and the Z score was -1.2.

`CN1CCN(CCCNC(=O)c2cccc(-c3cn[nH]c3)c2)CC1`: the “% Inhibition” value was determined as 7% and the Z score was -1.15.

Take `CC(=O)N1CCN(c2cccc(NC3CCN(Cc4ccncc4)CC3)c2)CC1`: the “% Inhibition” value is 0% and the Z score was -0.06.

Turning to `CN1CCN(CCOc2ccccc2C2NC(C)(CO)C3CN(C)CC23)CC1` (centres undefined), the “% Inhibition” value is given as -6% and the Z score amounted to 1.06.

With `O=c1cc(C2CCN(Cc3ccccc3OCCCN3CCCCC3)CC2)cc[nH]1`, the “% Inhibition” value was found to be 7% and the Z score is on record as -1.44.

`Cn1cc(-c2ccccc2CNc2nccc(C(F)(F)F)n2)cn1`: the “% Inhibition” value was 6% and the Z score was -1.08.

As to `CCc1c(C)nc(N)nc1NCCCOC1CCN(C)CC1`, the “% Inhibition” value was 2% and the Z score is -0.44.

Consider `COc1ccc2[nH]cc(CC(=O)N[C@@H](C)CN3CCN(c4ccccn4)CC3)c2c1`, for which the “% Inhibition” value is 10% and the Z score is given as -1.52.

For `Cn1cc(Nc2cccc(C(=O)NCCCn3ccc4ccccc43)c2)cn1`, the “% Inhibition” value was 12% and the Z score is listed as -2.58.
